# From PubChem BioAssay AID485281 (National Center for Advancing Translational Sciences (NCATS), 2010)
# Where “and” joins values, the source holds several entries; their conditions need not be identical. Equal entries are not always repeated. Hit rate of the full screen: of about 350,000 compounds, about 260 (0.074%) were called active. Inconclusive results, whose numbers are uncertain, are shown with a selection of clear calls. Calls come from the whole dose curve; as a rule, active = well fitted inhibition curve with a large enough effect; inconclusive = small, poorly fitted or top-dose-only effect; inactive = no such curve, though single readings can be large or run the other way. Where the call is inconclusive, the potency comes from a doubtful curve fit.
# Target: Ferritin light chain (Equus caballus) (UniProt P02791)
# UniProt P02791, sequence (P02791 whole entry, looked up): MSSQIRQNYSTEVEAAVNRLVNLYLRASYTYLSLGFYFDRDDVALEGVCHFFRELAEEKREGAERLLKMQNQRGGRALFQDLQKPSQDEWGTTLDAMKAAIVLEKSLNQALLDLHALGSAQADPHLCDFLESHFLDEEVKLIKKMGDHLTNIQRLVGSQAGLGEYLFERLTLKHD
# Assay: qHTS Assay for Identification of Novel General Anesthetics; note: nearly all actives have a fitted effect of over 20% in size
# Conditions: apoferritin/1-aminoanthracene competitive binding, fluorescence; activity change, negative = displacement: at 77.5 µM (top of the series)
# Method in brief: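 Apoferritin-based anesthetic binding model; compound displacement of fluorescent 1-AMA measured as endpoint fluorescence after 10 minutes at room temperature, scaled to free-ligand and complex controls.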
# % is set by controls: 0 for no effect and ±100 for the full control effect; potency is the fitted concentration of half-maximal effect; tags give direction and shape of the fitted curve.
Compound,Potency,"activity change, negative = displacement"
Cc1ccccc1OC(=O)Cn1c(C(F)(F)F)nc2ccccc21,"inconclusive: 39.8 µM [inhibitor, partial curve]",–
Fc1ccc(N2CCN(c3ccc4c(C(F)(F)F)cc(C(F)(F)F)nc4n3)CC2)cc1,"inconclusive: 3.55 µM [inhibitor, partial curve, poor fit]",–
COc1ccc(C2c3c(-c4ccc(F)cc4)n[nH]c3C(=O)N2c2ccccc2)cc1OC (configuration not stated),"inconclusive: 3.98 µM [inhibitor, partial curve]",–
OC1CC(c2ccco2)NC2(CCCCC2)C1 (configuration not stated),–,inactive: 33.7%
Oc1c(Cl)cc(Cl)cc1Sc1cc(Cl)cc(Cl)c1O,"inconclusive: 22.4 µM [inhibitor, partial curve, poor fit] and inconclusive: 31.6 µM [inhibitor, single point]",–
Cc1cc(=O)oc(C)c1C(=O)n1nc(C)c2c1C[C@@H]1[C@H]2C1(C)C,"inconclusive: 28.2 µM [inhibitor, partial curve]",–
Cn1c(C(=O)N2CCN(c3cccc(C(F)(F)F)c3)CC2)cc2sccc21,–,inactive: 2.48%
CN1C(=O)C[C@H](C(=O)O)[C@@H]1c1cccnc1,–,inactive: 2.14%
O=C(COc1ccccc1)Nc1ccc2nc(SCC(=O)N3CCCC3)sc2c1,–,inactive: -12.1%
CCCNS(=O)(=O)c1cccc(C(=O)OCc2cc(=O)oc3cc(OC)ccc23)c1,"inconclusive: 44.7 µM [inhibitor, single point]",–
COc1ccc(C2CC(=O)Oc3c2c(=O)n(C)c2ccccc32)c(OC)c1OC (configuration not stated),"inconclusive: 39.8 µM [inhibitor, single point]",–
O=C(NC1CCCCCC1)C(=S)NCc1ccccc1,"inconclusive: 14.1 µM [inhibitor, partial curve]",–
Cc1ccc(OCc2cc(C(=O)N3CCN(C4CCCC4)CC3)no2)cc1C,"inconclusive: 35.5 µM [inhibitor, single point]",–
O=C(Nc1ccc(S(=O)(=O)N2CCCC2)cc1)c1cccs1,"inconclusive: 39.8 µM [inhibitor, single point]",–
COc1ccc(-n2c(=S)[nH]c3ccccc32)cc1,"inconclusive: 50.1 µM [inhibitor, single point]",–
CCCCOc1ccc(CC(=O)NO)cc1,"inconclusive: 14.1 µM [inhibitor, single point] and inconclusive: 8.91 µM [inhibitor, partial curve]",–
CN(C)c1ccc(/C=C2\C(=O)Nc3ccccc32)cc1,"inconclusive: 15.8 µM [inhibitor, partial curve] and inconclusive: 14.1 µM [inhibitor, partial curve]",–
